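Cultured in 96-well plates, cells were exposed to test compound for 48 hours across five concentrations. GI50 is the concentration that inhibits growth by half.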 Certain results were filed several times, with different values. This is not the full list of results. The source may hold further records. The tests behind the records often covered other concentration ranges, not given here; a value can be the end of its range.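 TGI denotes the concentration required for complete inhibition of growth.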
Legend:
Test in all cases: growth of human tumour cells (NCI), 48 h
CCRF-CEM leukemia = system: CCRF-CEM leukemia
HL-60(TB) leukemia = system: HL-60(TB) leukemia
K-562 leukemia = system: K-562 leukemia
M14 melanoma = system: M14 melanoma
MOLT-4 leukemia = system: MOLT-4 leukemia
NCI-H522 lung = system: NCI-H522 lung
SNB-19 CNS = system: SNB-19 CNS
SNB-75 CNS = system: SNB-75 CNS
SR leukemia = system: SR leukemia
UACC-62 melanoma = system: UACC-62 melanoma

Q: Which TGI (CCRF-CEM leukemia) does the source give for `O=C(NNc1nc2cc(F)cc(F)c2n2cccc12)c1cccnn1` here?
A: The TGI was 30 µM and 362 nM.

Q: And the TGI (HL-60(TB) leukemia)?
A: Its TGI is 30 µM and 1.12 µM.

Q: What about the TGI (K-562 leukemia) of the same compound?
A: Its TGI is 30 µM and 1.31 µM.

Q: What about the TGI (M14 melanoma) of the same compound?
A: The TGI was 755 nM and 10.2 µM.

Q: What about the TGI (MOLT-4 leukemia) of the same compound?
A: Its TGI is 30 µM and 1.74 µM.

Q: And the TGI (NCI-H522 lung)?
A: The TGI was 11.5 µM and 940 nM.

Q: And the TGI (SNB-19 CNS)?
A: Its TGI is 9.21 µM and > 100 µM.

Q: What about the GI50 (SNB-75 CNS) of the same compound?
A: Its GI50 is 120 nM and 1.27 µM.

Q: And the TGI (SR leukemia)?
A: The TGI was 30 µM and 859 nM.

Q: What about the TGI (UACC-62 melanoma) of the same compound?
A: The TGI was 1.22 µM and 13.5 µM.

Reference: PubChem BioAssay (NCI)
